Measured values: PubChem BioAssay AID651820 (National Center for Advancing Translational Sciences (NCATS), 2012)
Among all 340,000 compounds or so, about 12,000 (3.5%) were called active. Inconclusive results, whose numbers are uncertain, are shown with a selection of clear calls. The call rests on the fitted dose curve; in most records, active means well fitted inhibition curve with a large enough effect; inconclusive means small, poorly fitted or top-dose-only effect, or another doubt; inactive means no such curve, though single readings can be large or run the other way. No potency is given beside an inconclusive call; the fits are too rough.

Experiment: qHTS Assay for Inhibitors of Hepatitis C Virus (HCV)
Details: Huh7.5.1 HCVcc-Cre (HCVcc is cell-culture hepatitis C virus) infection, luciferase reporter, 44 h; activity change, negative = inhibition: at 41.8 µM (top of the series)
Summary of the method: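 Cells (1,000/well) were plated 4 h before compound, then infected with HCVcc-Cre virus (~0.5 moi). After 44 h further culture, infection was read as luciferase luminescence following a 15 min substrate incubation at room temperature.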
On the % scale 0 is the no-effect control and ±100 the full control effect; potency means the concentration at half of the fitted maximal effect; tags describe the fitted curve by direction and shape.

Row | SMILES | activity change, negative = inhibition | Potency
1 | Cc1cccc2c1cnn2C(=O)Nc1ccc(Br)cc1F | inactive: 14.1% | –
2 | Cc1cccc(NS(=O)(=O)c2ccc(C)c(C(=O)N(C)C3CCN(C)CC3)c2)c1 | – | inconclusive [inhibitor, full curve]
3 | COc1ccc(C(=O)O/N=C(\N)c2ccc(Cl)cc2)cc1 | – | inconclusive [inhibitor, single point]
4 | O=C(c1cc2nc(-c3ccco3)cc(C(F)(F)F)n2n1)N1CCN(c2ccc(F)cc2)CC1 | – | inconclusive [inhibitor, partial curve]
5 | O=c1c2cc(Br)ccc2nc(-c2cccc(Cl)c2)n1O | – | inconclusive [inhibitor, full curve]
6 | Cc1cc(C(=O)N/N=C2\CCCC(C)C2)n[nH]1 (stereo not given) | inactive: 7.52% | –
7 | CC(=O)c1sc(NC(=O)CSCc2c(C)noc2C)nc1-c1ccccc1 | inactive: 0.0284% | –
8 | Cc1cc(=O)oc2c3c(cc(OCC(=O)NC(C)C)c12)OC(C)(C)CC3 | – | inconclusive [inhibitor, partial curve, poor fit]
9 | CCOC(=O)N1CCN(S(=O)(=O)c2ccc(OC)c3ccccc23)CC1 | – | inconclusive [inhibitor, partial curve, poor fit]
10 | Cc1ccc(CCNc2ccc3ccccc3c2)cn1 | inactive: -8.05% | –
11 | CC(=O)NC1CCCc2c1cnn2-c1ccc(C(C)(C)C)cc1 (stereo not given) | – | active: 10 µM
12 | COc1ccc(OC)c(NC(=O)CN(c2ccc(C)cc2)S(=O)(=O)c2c(C)noc2C)c1 | – | inconclusive [inhibitor, partial curve]
13 | CCCc1cc(C(=O)OC)c(NC(=O)OCC)s1 | – | inconclusive [inhibitor, partial curve]
14 | COc1ccc(C(=O)Nc2ccc(Cl)cc2C(=O)NCCO)cc1 | – | inconclusive [inhibitor, single point]
15 | CSc1ccc(OCC(=O)Nc2ccc(N3CCOCC3)c(Cl)c2)cc1 | – | active: 10 µM
16 | CC(=O)N1[C@H](C)C=C[C@]1(Cc1ccccc1)C(=O)NCCc1c[nH]c2ccccc12 | inactive: -25.3% | –
17 | CCOC(=O)N1CCN(C(=O)CSc2ncccn2)CC1 | inactive: 19.6% | –
18 | COc1ccc(CC(=O)Nc2ccc(N(C)C)c3ccccc23)cc1 | – | inconclusive [inhibitor, partial curve]
19 | Cc1cc(/C=C2/NC(=O)N(c3ccccc3)C2=O)c(C)n1-c1cccnc1 | inconclusive: -40.3% [inhibitor] | –
20 | COc1ccc(CN(C)C(=O)C2CC(=O)N(c3ccc4c(c3)OCCO4)C2)c(OC)c1 (stereo not given) | – | inconclusive [inhibitor, single point]
21 | CC(Oc1ccc2c(-c3ccccc3)cc(=O)oc2c1)C(=O)N1CCC[C@@H]1C(N)=O (stereo not given in full) | inactive: -35.3% | –
22 | CN(CC(=O)NCCN1CCOCC1)S(=O)(=O)c1ccc(Cl)cc1 | inactive: -4.07% | –
23 | O=[N+]([O-])c1cccc(S(=O)(=O)N2CCC(c3nc(-c4ccncc4)no3)CC2)c1 | – | inconclusive [inhibitor, single point]

Row | SMILES | activity change, negative = inhibition | Potency
24 | COc1cc(Cl)c(C)cc1NC(=O)c1ccc(S(C)(=O)=O)cc1 | – | inconclusive [inhibitor, partial curve]
25 | O=C(NCCc1ccccc1)C(=O)c1c(-c2ccccc2)[nH]c2ccccc12 | – | inconclusive [inhibitor, partial curve]
26 | Cc1ccc2c(CC(=O)NCC(=O)Nc3c(C)cccc3C)coc2c1 | – | inconclusive [inhibitor, single point]
27 | CC1CCN(C(=O)COC(=O)c2ccc(Br)o2)CC1 | inactive: -8.99% | –
28 | N#Cc1cn(C2OC(CO)C(O)C2O)c2ncnc(N)c12 (stereo not given) | – | inconclusive [inhibitor, partial curve, poor fit]
29 | CCCOc1ccc(-c2csc3ncn(Cc4ccc(C(=O)O)cc4)c(=O)c23)cc1 | – | inconclusive [inhibitor, single point]
30 | C[C@@H](C(=O)Nc1ccc2ccccc2c1)[C@@H]1C[C@@]1(C)[C@@H](NC(=O)c1ccccc1)c1ccccc1 | inactive: 4.06% [at 8.37 µM] | –
31 | COc1ccc(C(=O)N/C(=C\c2ccco2)C(=O)OCc2ccco2)cc1 | inactive: -5.13% | –
32 | CCN(C(=O)COC(=O)c1cccc(S(=O)(=O)NCc2ccccc2)c1)c1ccccc1 | – | inconclusive [inhibitor, single point]
33 | Cc1ccc(S(=O)(=O)N(C)C)cc1NC(=O)COC(=O)C1CC1 | – | inconclusive [inhibitor, single point]
34 | Cc1cccc(N2CCN(C(=O)CCC(=O)N3CCOc4ccc(Cl)cc43)CC2C)c1 (stereo not given) | – | inconclusive [inhibitor, partial curve]
35 | CC1=CC2=NC(=O)/C(=C\c3cc(C)n(-c4cccc(Cl)c4)c3C)C(=N)N2O1 | – | inconclusive [inhibitor, single point]
36 | CC(=O)n1c(Cl)c(NC(=O)CCl)c2ccccc21 | – | active: 14.1 µM
37 | COc1ccc2nc(NC(=O)c3c(C)noc3C)sc2c1 | – | inconclusive [inhibitor, single point]
38 | CCOC(=O)/C=C(C)\C=C\c1c[nH]c2ccccc12 | – | inconclusive [inhibitor, partial curve, poor fit]
39 | CC(C)NC1(C(N)=O)CCNCC1 | inactive: 2.95% | –
40 | O=C(N/N=C/c1ccc(F)cc1)c1sccc1OCc1ccc(F)cc1 | – | inconclusive [inhibitor, single point]
41 | CCCn1c(C)nc2c(c1=O)c1nc3ccccc3nc1n2CCC1=CCCCC1 | inactive: -29.9% | –
42 | COc1ccc(-c2cc(C(=O)NC(C)c3ccccn3)c3ccccc3n2)cc1OC (stereo not given) | – | inconclusive [inhibitor, single point]
43 | CCN(CC(=O)Nc1ccc(OC)cc1)CC(=O)Nc1ccc(Cl)cc1F | inactive: -0.545% | –
44 | CCc1ccc(OCC(=O)NC(NC(=S)Nc2ccc(Cl)cc2)C(Cl)(Cl)Cl)cc1 (stereo not given) | – | inconclusive [inhibitor, partial curve]
45 | O=C(Nc1ccc(C(F)(F)F)cc1)c1ccccc1Br | – | inconclusive [inhibitor, single point]
